The other results are listed elsewhere or left out.

In the experiment the target is T1, OsWOX13 (Oryza sativa, UniProt Q5QMM3 1-267).
T1 sequence: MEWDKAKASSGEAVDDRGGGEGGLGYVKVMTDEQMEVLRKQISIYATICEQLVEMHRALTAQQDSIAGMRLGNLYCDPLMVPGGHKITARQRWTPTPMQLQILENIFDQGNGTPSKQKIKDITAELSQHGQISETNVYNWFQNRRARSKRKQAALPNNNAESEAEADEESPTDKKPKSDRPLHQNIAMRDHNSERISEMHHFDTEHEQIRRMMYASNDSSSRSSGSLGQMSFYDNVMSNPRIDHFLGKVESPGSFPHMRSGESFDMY
Put plainly: protein-binding microarray (RPBM); PBS, 2% BSA, 51.3 ng/ul salmon testes DNA, 50 uM zinc acetate, 200 nM TF, 25 C, 1 h; high values mean tight binding. Particulars: protein: recombinant; tags: N-terminal polyhistidine and DsRed monomer fusion (pET32a); label: CyDye5-dUTP incorporated in the synthesized complementary strand; 3' TTTTT single-stranded linker to array surface; dsDNA, one strand shown. In short, it runs like this:
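Transcription factors, each fused N-terminally to a polyhistidine tag and DsRed, were expressed in E. coli BL21-CodonPlus and purified on Ni–NTA. A custom Agilent array was made double-stranded by primer extension with Cy5-dUTP and blocked with 2% BSA. It was incubated with 200 nM protein in PBS, 2% BSA, salmon testes DNA and 50 µM zinc acetate at 25 °C for 1 h, then washed. The binding signal is per-feature fluorescence intensity (arbitrary units) read on an Axon 4000B scanner.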
Consider “CTAAATTAGTAGATAAGTTTCTCTAACTAAAACTGGTCTACGGAGTCACCTAGTGCAG”, for which the binding signal is 25200 fluorescence intensity (a.u.).
Under “CAAATTATCTGTCATGCAAGTTGAAGAAGCAATCATAGATCGGAGTCACCTAGTGCAG” stands 5070 fluorescence intensity (a.u.); under “GTGATTGATATCGATTCTGATTGATGCCTTTGCCTGGTACCGGAGTCACCTAGTGCAG”, 57000 fluorescence intensity (a.u.).
With “CCTAGTTTGATTGTTGTCAAGACCAGATATGAAGACTCCCCGGAGTCACCTAGTGCAG” the figure was 23800 fluorescence intensity (a.u.).
Under “TAAATATACTTGATTTACTGCTGTGTGACCATATATGCTTCGGAGTCACCTAGTGCAG” stands 12000 fluorescence intensity (a.u.); under “ACAACCAACTGATTGAAGACGTCCACGTGCTTCCTAAGATCGGAGTCACCTAGTGCAG”, 35200 fluorescence intensity (a.u.).
On to “GTTGACGTGCGTGTGCTTGATTAGCAGAGATGCCTGAAGACGGAGTCACCTAGTGCAG”, for which the binding signal was 7090 fluorescence intensity (a.u.).
Under “ATAAATAATACTTAATCAATTATGTGCTAATGAGGTTTCTCGGAGTCACCTAGTGCAG” stands 7620 fluorescence intensity (a.u.); under “ATTGTTGCTGCTGCTGGATTGATTAGTGGTTAAGCAGATTCGGAGTCACCTAGTGCAG”, 5320 fluorescence intensity (a.u.); under “CAAAATATGTTTGTCAAAATTATGACAAGTTTCTACATTACGGAGTCACCTAGTGCAG”, 3290 fluorescence intensity (a.u.).
Under “CTTGTTTTGATTGAGACCAATTTATTGGTAATGCCCATGCCGGAGTCACCTAGTGCAG” stands 36600 fluorescence intensity (a.u.).
With “CAATTATTAATTTAATGAAACTATTTATAAATATTACTATCGGAGTCACCTAGTGCAG” the figure was 13600 fluorescence intensity (a.u.); with “GGGATAACTATGTCTAGTCAATTCTAACATTTATCTTCCCCGGAGTCACCTAGTGCAG”, 5900 fluorescence intensity (a.u.); with “TTTACTAATGATTGATCTGGATCATAGGTGCGGCGTGTTTCGGAGTCACCTAGTGCAG”, 37500 fluorescence intensity (a.u.).
With “CTAGTTTTATGATTGAGGGATGTGACTCAATCAAGAGCGACGGAGTCACCTAGTGCAG”, the binding signal was 31100 fluorescence intensity (a.u.).
With “ATTAATTATAGTAGATTTTGTTAACCTAGCTAGAAACTATCGGAGTCACCTAGTGCAG” the figure was 18900 fluorescence intensity (a.u.).
With “ACCTTAACTGCAGTTAAGACTAATGAAAGTTTCACCTGCACGGAGTCACCTAGTGCAG” the figure was 24800 fluorescence intensity (a.u.); with “CATTAATTAAACGATCCGCCATTACCCGCACAAGCACCGGCGGAGTCACCTAGTGCAG”, 32600 fluorescence intensity (a.u.); with “ATCACAGATGATTTTGTTGTGACAGAATTCTATGTATACACGGAGTCACCTAGTGCAG”, 13500 fluorescence intensity (a.u.).
With “AGAATTGATAGTTAAAGAACTTAATAATATTGTTGATATTCGGAGTCACCTAGTGCAG” the figure was 17700 fluorescence intensity (a.u.); with “CTGATTAGTGTTTAGAATCCACCTTCATTCTCCTCCTTGGCGGAGTCACCTAGTGCAG”, 37000 fluorescence intensity (a.u.); with “CATCAGATCATTGATCAATGTTTCATCAGCTCATCACTTCCGGAGTCACCTAGTGCAG”, 3990 fluorescence intensity (a.u.).
For the sequence “GAGACATCAACTAATTATTTACTACAGAAAAGAGGTCGTGCGGAGTCACCTAGTGCAG”, the binding signal is 11500 fluorescence intensity (a.u.).
With “CTTAATTAGCATGAAACACAAGTAGTATATGATTACACCACGGAGTCACCTAGTGCAG” the figure was 33100 fluorescence intensity (a.u.); with “TTCCGGTGATTAGTCAACTGCCACGACCAGATTAATCTACCGGAGTCACCTAGTGCAG”, 20300 fluorescence intensity (a.u.).
Under “CAAATTAGAATTTGGTATCTAATTTGTTTATATCGAGGGGCGGAGTCACCTAGTGCAG” stands 17700 fluorescence intensity (a.u.); under “CAGAAAATTTTCATATTTATGAATTCATCTATTTAATGTACGGAGTCACCTAGTGCAG”, 5640 fluorescence intensity (a.u.); under “TTCATAAATTAGTTGAGCTGCTCTGATCGTTTGAGCTTGGCGGAGTCACCTAGTGCAG”, 15100 fluorescence intensity (a.u.).
Regarding “CTCTAGCGGTGAAGATGCCTTGATTGGTGATGAAGATTGCCGGAGTCACCTAGTGCAG”, the binding signal was 8840 fluorescence intensity (a.u.).
With “CTCTAGGTAATTGGATTGGAGCCAGGGATTTATATATAGTCGGAGTCACCTAGTGCAG” the figure was 14100 fluorescence intensity (a.u.); with “AAATTCGTGAAGAAATCAATTAATTTAATTATTGTCCCACCGGAGTCACCTAGTGCAG”, 13700 fluorescence intensity (a.u.); with “GATTTGATTTTGAGGCGGATGGAGGAGTTTGAACGGAGGCCGGAGTCACCTAGTGCAG”, 3840 fluorescence intensity (a.u.).
Regarding “ATGTACCAATCGATCACCCATCAATTCATCATCAAGATTGCGGAGTCACCTAGTGCAG”, the binding signal is 4800 fluorescence intensity (a.u.).
With “AGTTCAACAAATTGTTTCACTCATCACTCATCACTCGTTCCGGAGTCACCTAGTGCAG” the figure was 4690 fluorescence intensity (a.u.); with “ACTTTTAACTCAAAATTTAAACTTTAAAGTCAAATTTTGACGGAGTCACCTAGTGCAG”, 6980 fluorescence intensity (a.u.); with “TATAATAATTAAAACTCAATCAATCATACGTTAATAGCACCGGAGTCACCTAGTGCAG”, 20000 fluorescence intensity (a.u.).
Consider “CGTAATCACTGAATGCTAATCTATCACTAGTAAAACCCATCGGAGTCACCTAGTGCAG”, for which the binding signal is 18700 fluorescence intensity (a.u.).
With “AAAATTGAATATTGATGAATAAATTGATGGTGAAATTTATCGGAGTCACCTAGTGCAG” the figure was 25200 fluorescence intensity (a.u.); with “ACTAATTTAGTACGTACTACTCCAGTAGTTACACCTGCTTCGGAGTCACCTAGTGCAG”, 13000 fluorescence intensity (a.u.).
With “TGTAAGTTTATAAATTAAACACAACTGGGCAGTTCCACTCCGGAGTCACCTAGTGCAG” the figure was 3690 fluorescence intensity (a.u.); with “TCATAACTATTTTAATTGACATACAAACAATGAGGCGGCACGGAGTCACCTAGTGCAG”, 58300 fluorescence intensity (a.u.).
Under “TCATCTCCTATTTAATTGGTGGTTTATTGTCGGATCGACTCGGAGTCACCTAGTGCAG” stands 5740 fluorescence intensity (a.u.); under “CATAACTGCAAATTTATCTCCCCGTTCGAAGTTCCCACGCCGGAGTCACCTAGTGCAG”, 40400 fluorescence intensity (a.u.); under “ACGGGACAAGCTAAGCTTAATTGGCTCTTTGTAGCGCATGCGGAGTCACCTAGTGCAG”, 5570 fluorescence intensity (a.u.).
For the sequence “ATCTACAACTTTCTAATTGACTATTTTATTATTTGAGGTCCGGAGTCACCTAGTGCAG”, the binding signal is 9250 fluorescence intensity (a.u.).
With “AACCATCTATCAACTTCCTAATTAATGGCTACCTGTAGTACGGAGTCACCTAGTGCAG” the figure was 20700 fluorescence intensity (a.u.); with “TACTCCAACTAATTGACTTGCTCATTGCATCCCAGTTAGGCGGAGTCACCTAGTGCAG”, 35100 fluorescence intensity (a.u.).
In the case of “TTAAATGATTATATTGCTTGTATTTTGTATAAGTTTATTTCGGAGTCACCTAGTGCAG”, the binding signal was 11000 fluorescence intensity (a.u.).
Under “CCTCCAATTAAGCAACCTCGGCTCACATTCACCACCAGCACGGAGTCACCTAGTGCAG” stands 8890 fluorescence intensity (a.u.); under “TTTTCCTGTCTAAATTATCTCCAAACCGTAGGAATTTTCGCGGAGTCACCTAGTGCAG”, 7500 fluorescence intensity (a.u.); under “AATTCATTTATAGCCAATCTAATAGCTCGTTCATACAATACGGAGTCACCTAGTGCAG”, 6520 fluorescence intensity (a.u.).
For the sequence “TGTAATTATAAACTTCAAATTATGTCTAGTCGCACCGATACGGAGTCACCTAGTGCAG”, the binding signal was 22000 fluorescence intensity (a.u.).
With “ATTTTAATAGGAGATATTTATAATTGTTTACACACTTAAACGGAGTCACCTAGTGCAG” the figure was 3260 fluorescence intensity (a.u.); with “GATACTAGTTAATTTATATTATATTATAAATAAGGTAATTCGGAGTCACCTAGTGCAG”, 16700 fluorescence intensity (a.u.).

The values above are taken from publication PMC7819943, “Rice protein-binding microarrays: a tool to detect cis-acting elements near promoter regions in rice”.
